Laboratory results taken from the supplement of paper PMC3334620.
Whole data set: some 33,000 sequences, median “E-score (-0.5 to 0.5)” near -0.017, cut for the highest 2% near 0.3. The list shows a part of the results.

molecular target: T1, Sut1 (UniProt P53032); assay: PBM E-score (8-mer binding enrichment) (E-score (-0.5 to 0.5)); higher = stronger / more preferred TF binding; most listed sequences are background and not binding sites; conditions: protein concentration: 200 nM; construct: GST-full length
T1 sequence: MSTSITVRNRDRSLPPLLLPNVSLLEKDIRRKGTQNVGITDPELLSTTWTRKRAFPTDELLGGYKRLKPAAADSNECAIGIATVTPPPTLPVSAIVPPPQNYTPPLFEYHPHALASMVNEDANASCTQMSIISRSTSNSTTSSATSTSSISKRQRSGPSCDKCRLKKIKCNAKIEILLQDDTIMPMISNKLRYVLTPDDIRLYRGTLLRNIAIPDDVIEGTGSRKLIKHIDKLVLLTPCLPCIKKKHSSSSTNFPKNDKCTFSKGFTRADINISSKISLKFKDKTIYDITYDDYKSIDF
Procedure, shortened: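 Universal all-10-mer Agilent arrays, double-stranded by primer extension on fresh or once-stripped slides, were probed with about 100-200 nM GST-tagged yeast transcription factors made by PURExpress. Fluorescent anti-GST detected bound protein, and masliner normalised the scans. E-scores from the Universal PBM Analysis Suite were given to each ungapped eight-base word pooled with its reverse complement.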

First: CCGCTCTA
Second: AACAAAAT
The “PBM E-score” value of the first is lower: 0.026 for the first, 0.211 for the second.

Compared with CAGGCTCC, AATGAACG is lower in “PBM E-score” value: 0.119 for the first, 0.0695 for the second.

First: AATACGAG
Second: AACCATCC
The “PBM E-score” value of the first is lower: -0.0322 for the first, 0.0583 for the second.

Compared with AACCTACC, ACTATCGC is lower in “PBM E-score” value: -0.0315 for the first, -0.0369 for the second.

Compared with CCCGGCCC, TATAAAGA is higher in “PBM E-score” value: -0.188 for the first, 0.224 for the second.

Compared with ACTAAGTC, GCCAATAA is higher in “PBM E-score” value: 0.0911 for the first, 0.095 for the second.

Going from AAAGCTGT to CTTCTTAC, the “PBM E-score” value falls from 0.0813 to -0.035.

Compared with AGCTAGGG, ACTCTCGA is higher in “PBM E-score” value: -0.201 for the first, -0.0375 for the second.

Compared with CAGCCCAC, GCGGGGCC is lower in “PBM E-score” value: -0.186 for the first, -0.19 for the second.

Compared with CGTATTAA, ACCCTATG is lower in “PBM E-score” value: 0.0987 for the first, -0.159 for the second.

Going from ACAGTCCG to GCGGCGCC, the “PBM E-score” value falls from 0.312 to 0.00918.

First: GCTCGAAA
Second: ATTGTTCG
The “PBM E-score” value of the first is lower: 0.0433 for the first, 0.271 for the second.

Compared with GCACGCCA, CAACCGAG is higher in “PBM E-score” value: -0.271 for the first, 0.0199 for the second.

First: TCTCTAAA
Second: CCCACCGC
The “PBM E-score” value of the first is higher: 0.107 for the first, -0.147 for the second.

First: CAGCGAAG
Second: GACCTCAA
The “PBM E-score” value of the first is lower: -0.111 for the first, -0.062 for the second.

Compared with ATCTCCTG, GTATCGAA is higher in “PBM E-score” value: 0.016 for the first, 0.113 for the second.

Going from CTTTTCGA to CGAACAAA, the “PBM E-score” value rises from 0.0839 to 0.234.

Going from TATTCGCA to ATTCAGGA, the “PBM E-score” value rises from 0.0506 to 0.0993.

First: ATAGAGGC
Second: CCATATGA
The “PBM E-score” value of the first is lower: -0.288 for the first, -0.13 for the second.

Compared with GCATGGTA, AAAGAACT is higher in “PBM E-score” value: -0.106 for the first, 0.119 for the second.

Going from AGTATCGC to CTTCACGA, the “PBM E-score” value falls from -0.145 to -0.167.

Going from CCCTCACA to ACCATCTC, the “PBM E-score” value rises from -0.337 to -0.0647.

First: GGTTCAGA
Second: GGTTTTGA
The “PBM E-score” value of the first is lower: -0.0644 for the first, 0.215 for the second.

Going from TCTGCCCA to AGTGCGAT, the “PBM E-score” value rises from -0.056 to 0.0266.

Going from TCAATAAA to CCGATACC, the “PBM E-score” value falls from 0.106 to -0.172.

Compared with TCCAGAGA, CTTTTGGA is higher in “PBM E-score” value: -0.187 for the first, 0.0684 for the second.

Compared with AGAGGACC, CAACCCAG is higher in “PBM E-score” value: -0.296 for the first, -0.24 for the second.

Going from CTGGACAA to CGACAAAA, the “PBM E-score” value rises from -0.205 to 0.274.

Compared with ACCACCGA, CGCATTAA is higher in “PBM E-score” value: -0.0384 for the first, 0.0301 for the second.

Going from AACCTTGG to CCTCCTGC, the “PBM E-score” value falls from 0.00151 to -0.209.

First: TTGAGCAA
Second: GAGTACGC
The “PBM E-score” value of the first is higher: -0.0501 for the first, -0.0779 for the second.

Compared with GCAGAGAC, GACTCAGA is higher in “PBM E-score” value: -0.276 for the first, -0.126 for the second.

Compared with AATTTGAC, AAGCCCCG is lower in “PBM E-score” value: 0.181 for the first, 0.0824 for the second.

First: TACCGAGA
Second: CAGACCAC
The “PBM E-score” value of the first is higher: 0.0757 for the first, -0.169 for the second.

Compared with CCTAGCGA, ATTATAAA is higher in “PBM E-score” value: -0.262 for the first, 0.275 for the second.

Going from ACTGCATC to CGGTTAAA, the “PBM E-score” value rises from -0.121 to 0.171.

First: GAGGTTGA
Second: GACGGTGC
The “PBM E-score” value of the first is higher: -0.00781 for the first, -0.234 for the second.

First: AGCGTTGA
Second: GTGGCCAC
The “PBM E-score” value of the first is higher: -0.00854 for the first, -0.147 for the second.

Going from AAGACGAG to ACTCGCGG, the “PBM E-score” value rises from -0.0762 to 0.075.

Compared with AGGGAGGC, ATGTCACG is lower in “PBM E-score” value: -0.221 for the first, -0.226 for the second.

Going from CGATGATC to GAGGCAAA, the “PBM E-score” value falls from 0.0382 to -0.0375.

First: ATCGCTCG
Second: ACTACACT
The “PBM E-score” value of the first is lower: -0.0657 for the first, -0.0118 for the second.

Compared with ACGATAAC, TTTATAAA is higher in “PBM E-score” value: 0.0725 for the first, 0.182 for the second.

Going from ACTGGAAC to AAGCCAGT, the “PBM E-score” value falls from -0.0112 to -0.176.

Compared with AGTCGATG, TGGACACA is lower in “PBM E-score” value: 0.0604 for the first, -0.00117 for the second.

Going from GCAGGGTA to ATGAGGTG, the “PBM E-score” value falls from -0.112 to -0.145.

Compared with AATCCCTG, CCCGTCCC is lower in “PBM E-score” value: -0.146 for the first, -0.247 for the second.

Going from CAAGGCTC to GTAACTGA, the “PBM E-score” value rises from -0.328 to -0.138.

Compared with CGAGCATA, AAGTGCCA is higher in “PBM E-score” value: -0.0666 for the first, -0.0565 for the second.

First: GGATGCAA
Second: CGAAAAAC
The “PBM E-score” value of the first is lower: 0.0448 for the first, 0.151 for the second.

Going from GTTGTGGA to CAGTATGG, the “PBM E-score” value falls from -0.0256 to -0.0986.

First: TCAACCGA
Second: CATTACAA
The “PBM E-score” value of the first is lower: 0.114 for the first, 0.212 for the second.

Going from AAACTGGA to AAACATAT, the “PBM E-score” value rises from 0.102 to 0.267.

First: CCACAGTC
Second: CAGCGTAA
The “PBM E-score” value of the first is lower: -0.308 for the first, 0.024 for the second.

First: CGATCGTC
Second: ATAGGGGC
The “PBM E-score” value of the first is higher: -0.0685 for the first, -0.263 for the second.

First: AGAGACGA
Second: CCGTGAGC
The “PBM E-score” value of the first is higher: 0.014 for the first, -0.0664 for the second.

First: ACCGTTCC
Second: CACCAGTA
The “PBM E-score” value of the first is higher: 0.0208 for the first, -0.059 for the second.

Going from GCAGTGGC to AAACGTCG, the “PBM E-score” value falls from -0.0364 to -0.0497.

Compared with AATTATGT, GAACTGGC is lower in “PBM E-score” value: 0.147 for the first, -0.117 for the second.

Compared with ACTACGCG, AGAAGAGC is higher in “PBM E-score” value: -0.068 for the first, -0.0588 for the second.

Going from CCGAATCG to AGACCACA, the “PBM E-score” value falls from 0.153 to -0.25.

Going from GAGAGCTC to CTCCACTA, the “PBM E-score” value falls from -0.119 to -0.137.

Going from AATCGCGT to AGATCCAG, the “PBM E-score” value falls from 0.0398 to -0.03.

Going from ATCAGTTC to AATCGGTA, the “PBM E-score” value rises from -0.0531 to 0.0655.

Going from AGTTGGAA to GAATGTGA, the “PBM E-score” value rises from 0.0348 to 0.082.

Compared with CATTCGCA, TCACCTAA is higher in “PBM E-score” value: -0.0433 for the first, 0.0844 for the second.

Compared with AAGGCCCT, CCCACCAA is higher in “PBM E-score” value: -0.226 for the first, 0.0281 for the second.

Going from CTCAAAGC to AGTCGCAA, the “PBM E-score” value falls from 0.105 to -0.0255.

First: ATTAATAG
Second: AGGGTCAT
The “PBM E-score” value of the first is higher: 0.117 for the first, -0.201 for the second.

Going from AGCGTACG to GTGTAGTA, the “PBM E-score” value rises from -0.206 to -0.0262.

Going from CTGGCTGA to AACGTCGT, the “PBM E-score” value falls from 0.0245 to -0.129.

First: CTAGAACA
Second: CCGTAAGA
The “PBM E-score” value of the first is higher: 0.14 for the first, 0.0164 for the second.

First: ACCTTAGC
Second: GGGCCCCC
The “PBM E-score” value of the first is higher: -0.0352 for the first, -0.309 for the second.

Compared with AACCCCGA, TGAGCGAA is lower in “PBM E-score” value: 0.447 for the first, 0.0958 for the second.

Compared with TGGTCCAA, CTAGGGAG is higher in “PBM E-score” value: -0.193 for the first, -0.142 for the second.

First: AGGTAGGA
Second: GACCTAAA
The “PBM E-score” value of the first is lower: 0.0679 for the first, 0.0696 for the second.

Compared with ACACGATA, GAAAGCAA is higher in “PBM E-score” value: 0.143 for the first, 0.251 for the second.

First: AACCAACC
Second: ACAGGTCG
The “PBM E-score” value of the first is lower: -0.178 for the first, -0.161 for the second.

Going from ATAGTTAC to AATTGTGG, the “PBM E-score” value falls from 0.148 to 0.0677.

Going from TCTCATCA to CTGTAGGC, the “PBM E-score” value falls from 0.184 to -0.132.

Going from GGCTCTGA to GTGGGGCA, the “PBM E-score” value falls from -0.112 to -0.31.

Going from ATCACTTA to ATTAATCG, the “PBM E-score” value falls from 0.174 to 0.162.

Going from CTACACTA to GGTGTAAA, the “PBM E-score” value rises from -0.103 to 0.034.

Going from CTTACTTA to CACGTTAC, the “PBM E-score” value falls from 0.11 to -0.132.

First: CTGTGTTA
Second: GGTTTCTA
The “PBM E-score” value of the first is lower: 0.0581 for the first, 0.125 for the second.

Going from ATTATCCA to GTCGTTCA, the “PBM E-score” value falls from 0.12 to -0.0765.
